# The full ranking holds about 16,000 sequences; the median of “Z-score” is about -0.37, and the highest 2% start at about 3.2. Some of the results follow.
# Test system: RBM10 RRM1-ZnF (GST-tagged construct)
# Assay: RNAcompete 7-mer binding Z-score; higher = stronger binding preference
# Method in brief: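 A one-sided Z-score for enrichment, taken across the probes containing each heptamer motif, was assigned to every such motif. The RNA came from a designed pool of 241 399 sequences up to 41 nt (1.5 nmol), bound by 20 pmol of GST-tagged RBM10 constructs in 1 ml Hepes pH 7.8 buffer with glutathione Sepharose beads for 30 min at 4°C. Four 2-min washes at 4°C preceded identification of bound RNA by microarray hybridisation.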
row,Sequence,RNAcompete 7-mer binding Z-score
1,UACAGUC,-0.412
2,GAGUUCG,-0.181
3,UCCCAUC,-0.707
4,GGGUGUC,2.7
5,GCUCGAG,-0.0512
6,UUACUCA,-0.72
7,CAGACUU,-0.828
8,GUGGUAC,1.63
9,CGCAAGC,-0.633
10,GUUUUGU,0.41
11,AUCUGCU,-0.834
12,GCUACUG,-0.308
13,UGAGUUA,0.0398
14,GCUUCCA,-0.698
15,GAUGAUC,-0.194
16,GCGACGG,1.44
17,GUGACGG,2.02
18,AAAUUAU,-0.503
19,CCCCUUC,-0.529
20,AUUGUGA,0.309
21,AUGUCGU,-0.409
22,GGCUAAG,0.465
23,CCUCCGU,-0.717

row,Sequence,RNAcompete 7-mer binding Z-score
1,AUCACUC,-0.711
2,GUGCUAA,0.153
3,CCGGUUC,-0.565
4,CAGGAAA,0.94
5,CCUUCAC,-0.795
6,UCCUCAA,-0.854
7,AUACGUA,-0.201
8,GCACACA,-0.262
9,UUUUAUG,-0.613
10,CUGAUUU,-0.737
11,GUAUUGU,-0.0772
12,GCCAUGU,-0.483
13,UUAUCAG,-0.399
14,UCCCACU,-0.694
15,ACUUAAG,-0.493
16,CCGAUAA,-0.532
17,UUAUAUC,-0.629
18,CGAGCGU,0.0495
19,AACGAGC,0.16
20,CCAGCGG,0.404
21,GAGCGUU,0.199
22,CGUCGUC,-0.279
23,GAGACCG,-0.0999

row,Sequence,RNAcompete 7-mer binding Z-score
1,UUCCGCC,-0.756
2,AACCGGA,-0.0512
3,GUUACAG,0.589
4,AGAUGAA,1.5
5,UGGCGAU,0.365
6,GGACCGC,-0.191
7,CCGACUC,-0.808
8,GGUGCAA,1.25
9,UGUAAGG,1.29
10,AAUGGAU,2.64
11,AGCGUAG,0.482
12,UGGUGGA,2.86
13,UGAGUAG,0.946
14,UCUGUGA,-0.581
15,UGAACGG,1.75
16,CUUUACG,-0.779
17,AGCGGUC,0.131
18,GAGUGCC,-0.158
19,CAACUUG,-0.513
20,GUUAAGC,-0.194
21,CACGCCG,-0.35
22,UAUGCUA,-0.477
23,AAAUGCG,-0.0772

row,Sequence,RNAcompete 7-mer binding Z-score
1,GUCGCUA,-0.243
2,ACAAGCC,-0.75
3,UGCUCGA,-0.532
4,CAGCAUG,-0.113
5,UUAAAGU,-0.565
6,CUAUUCA,-0.737
7,CUUCUAA,-0.821
8,UCUGGAU,-0.214
9,UAUUAGA,-0.0837
10,UAAGGCC,-0.311
11,CUCGAGG,0.215
12,CCGCUGG,-0.168
13,GCGGCUG,0.556
14,GGAACUC,0.111
15,GGCUUGA,0.264
16,UGGCACG,0.449
17,ACGAUCA,-0.396
18,AGGAGCU,0.729
19,UCCUUUA,-0.951
20,UAUUACC,-0.86
21,UAGCUAA,-0.292
22,CUUCGAU,-0.704
23,CCGCGCC,-0.292

# Source: the supplement of paper PMC5499739
